Measured values published in PubChem BioAssay AID686970 (National Center for Advancing Translational Sciences (NCATS), 2013).
The campaign covered roughly 360,000 compounds. About 6,000 (1.7%) were called active. This list was built around the results that the source calls inconclusive (neither active nor inactive); the mix of calls is not that of the screen. Calls come from the whole dose curve; as a rule, active = well fitted cell-killing curve with a large enough effect; inconclusive = small, poorly fitted or top-dose-only effect, or effect the other way; inactive = flat fitted curve, though single readings scatter. Potencies of inconclusive entries are left out as doubtful fits.

Assay: qHTS for induction of synthetic lethality in tumor cells producing 2HG: qHTS for the HT-1080-NT fibrosarcoma cell line;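 note: NT is the 2HG producing partner of a matched IDH1 knockdown line; nearly all actives have a fitted effect of over 55% in size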;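 for activity, negative = less viability: 0% = DMSO-treated cells and -100% = media-only wells without cells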
Conditions: HT-1080-NT fibrosarcoma viability, CellTiter-Glo ATP luminescence, 48 h; activity, negative = less viability: at 46.1 µM (top of the series) unless noted
Method in brief: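 HT-1080-NT fibrosarcoma cells (2HG-overproducing), 750 cells/well in RPMI with 5% FBS, dosed after 2 h and incubated 48 h at 37C. CellTiter-Glo luminescence normalized to DMSO and no-cell wells; concentration-response curves fitted and classed.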
Potency is the fitted concentration of half-maximal effect; tags give direction and shape of the fitted curve.

| SMILES | Potency | activity, negative = less viability |
| --- | --- | --- |
| CCNC(=O)C1(C)CCN(Cc2ccc(C#N)cc2)C1 (stereo not given) | inconclusive [rising, partial curve] |  |
| CSc1nc(N)n2nc(-c3ccc(Cl)cc3)cc2n1 | inconclusive [cytotoxic, single point] |  |
| C=CCNC(=O)/C(C#N)=C/c1ccccc1OCc1ccc(C(=O)OC)cc1 | inconclusive [cytotoxic, single point] |  |
| Cc1ccc(-c2cc(-c3ccccc3)nc(NN)n2)cc1 | inconclusive [cytotoxic, single point] |  |
| O=c1c2ccccc2sc2ccc(NCCCN3CCOCC3)cc12 |  | inactive: -12.7% |
| COC(=O)C1=CN(c2ccc(C(C)(C)C)cc2)C(N)=C(C#N)C1c1cccc2ccccc12 (stereo not given) | inconclusive [cytotoxic, partial curve, poor fit] |  |
| O=C(c1ccc(C#CC2(O)CCCCC2)cc1)N1CCN(C(c2ccccc2)c2ccccc2)CC1 | inconclusive [cytotoxic, partial curve] |  |
| CCc1ccn2cc(-c3ccc4c(c3)OCO4)nc2c1 | active: 11.6 µM |  |
| CCn1c(=O)c([N+](=O)[O-])c(NCCc2ccccc2)c2ccccc21 |  | inactive: -14.1% |
| Cc1c(C(=O)N2CCOCC2)sc(NC(=O)CCl)c1C#N | active: 13 µM |  |
| CN(C)c1ccc(CNCCC2(O)CCOC(C)(C)C2)cc1 (stereo not given) |  | inactive: 10.8% |
| CC12CCC(O)CC1=CCC1C2CCC2(C)C3=NN=CC3CC12 (stereo not given) | inconclusive [cytotoxic, single point] |  |
| Cc1cccc(NC(=O)c2nc[nH]c2C(=O)Nc2ccccc2F)c1 |  | inactive: 26.1% |
| c1ccc(-c2cnc(-c3ccccn3)nn2)cc1 | inconclusive [cytotoxic, single point] |  |
| CCOc1cc(CN2CCN(C(=O)c3ccco3)CC2)ccc1OC |  | inactive: 6.79% |
| COc1ccc(OC)c(NC(=O)CSc2nnc(-c3cccnc3)s2)c1 | active: 18.4 µM |  |
| CC(=O)Nc1ccc(C(=O)N2CCCC(c3cc(C(=O)Nc4ccccc4Cl)no3)C2)cc1 (stereo not given) | inconclusive [rising, single point] |  |
| COc1ccccc1N1CCN(C(=O)c2onc(C)c2Cl)CC1 | inconclusive [cytotoxic, single point] |  |
| COc1cccc(NC(=O)CSc2nnc(CNC(=O)c3ccccc3)n2C)c1 | inconclusive [cytotoxic, partial curve] |  |
| O=C(CN1CCN(c2ccc([N+](=O)[O-])cc2)CC1)Nc1ccccn1 |  | inconclusive: -32.9% [cytotoxic] |
| O=C(NC1CCN(Cc2ccccc2)CC1)c1ccc2c(c1)[nH]c(=O)n2Cc1ccc(F)cc1 | active: 14.6 µM |  |
| CCOc1ccc(Nc2ccc([N+](=O)[O-])c3nonc23)cc1 |  | inactive: -27.4% |
| Nc1nc2ccccc2n1C(=O)c1ccc(F)cc1 | inconclusive [cytotoxic, single point] |  |
| COc1cc(OC)c(NC(=S)Nc2cc(Cl)cc(Cl)c2)cc1Cl | inconclusive [cytotoxic, single point] |  |
| CC(C)NC(=O)C(=O)NNC(=O)CCc1ccccc1 |  | inconclusive: 37.3% |

| SMILES | Potency | activity, negative = less viability |
| --- | --- | --- |
| COc1ccc(C(=O)CSc2nnc(COc3ccc(C#N)cc3)n2-c2ccccc2)cc1 | inconclusive [cytotoxic, single point] |  |
| CCC(=O)Nc1ccc(C=C(C(C)=O)C(C)=O)cc1 |  | inactive: -0.421% |
| CSc1nc(N2CCOCC2)c2ccccc2n1 |  | inactive: 5.66% |
| COc1cccc(C(=O)COc2cccc(NC(=O)c3cccc([N+](=O)[O-])c3)c2)c1 |  | inactive: -18.1% |
| Cc1ccccc1SCC(=O)OCC(=O)N(C)c1c(N)n(Cc2ccccc2)c(=O)[nH]c1=O |  | inactive: -0.786% |
| Cc1cc(C)c(O)c(CN(C)Cc2cc(Cl)cc(Cl)c2O)c1 | inconclusive [cytotoxic, single point] |  |
| CN1CC=C2C(C#N)=C(N)C(C#N)(C#N)[C@H](c3cccs3)[C@H]2C1 |  | inactive: 1.14% |
| Cc1csc(SCC(=O)Nc2ccc3c(c2)OCCO3)n1 | inconclusive [rising, full curve] |  |
| Cc1cc(C(=O)NN)c2cc(Br)ccc2n1 | inconclusive [cytotoxic, single point] |  |
| CCCN(CCC)c1nc(NC2CCN(C(=O)OCC)CC2)nc(OC)n1 | inconclusive [cytotoxic, single point] |  |
| CC1(C(=O)Nc2ccccc2F)CCN1C(=O)Cc1ccc(-c2ccccc2)cc1 (stereo not given) | inconclusive [cytotoxic, single point] |  |
| CCc1nnc(NC(=O)c2ccc3ncsc3c2)s1 |  | inactive: 21.8% |
| CC1(C)CC(NC(=O)c2cc(COc3cccc(C(F)(F)F)c3)on2)CCO1 (stereo not given) | inconclusive [cytotoxic, single point] |  |
| Cc1ccc(CN2CCN(Cc3cn(C(C)C)c4ccccc34)CC2CCO)o1 (stereo not given) |  | inactive: -21.4% |
| CCCNC(C)(C)COC(=O)c1ccccc1 |  | inactive: -26.5% |
| COc1ccccc1C(=O)Nc1ccc2nc3n(c(=O)c2c1)CCCC3 |  | inactive: -10.8% |
| CC(=O)c1ccc(OCCCC(=O)Nc2ccc(C)c(S(=O)(=O)N3CCCCC3)c2)cc1 | inconclusive [cytotoxic, partial curve] |  |
| CCc1cc(=O)n2c([nH]c3ccccc32)c1C#N |  | inactive: -12.2% |
| COc1ccc(/C=N/Nc2nccnc2Cl)cc1 | active: 10 µM |  |
| O=C(O)CNC(=O)CCN1C(=O)c2ccccc2C1=O |  | inactive: -4.15% [at 9.24 µM] |
| O=C(Nc1ccccc1N1CCOCC1)c1ccc([N+](=O)[O-])s1 | inconclusive [cytotoxic, single point] |  |
| O=C1N/C(=N/N=C/c2ccccc2O)SC1Cc1ccc(F)cc1 (stereo not given) | inconclusive [cytotoxic, partial curve] |  |
| NC(=O)[C@H]1CC2(CC(c3cccc(NC(=O)COc4ccc(Cl)cc4)c3)=NO2)CN1C(=O)c1ccc(Cl)cc1 (stereo not given in full) | inconclusive [cytotoxic, single point] |  |
| O=C(COc1cccnc1[N+](=O)[O-])NCc1ccccc1 |  | inactive: 1.3% |
| CC(=O)Nc1ccc(NC(=O)CN(C)CCC#N)cc1 | inconclusive [rising, single point] |  |
